Results as given in PubChem BioAssay AID588382 (National Center for Advancing Translational Sciences (NCATS), 2011).
The campaign covered roughly 1,300 compounds. About 150 (12%) were called active. Roughly 30% stayed inconclusive and do not appear here. Calls follow the shape of the dose curve; as a rule, active = well fitted cell-killing curve with a large enough effect; inconclusive = small, poorly fitted or top-dose-only effect, or effect the other way; inactive = flat fitted curve, though single readings scatter. The entries are a selection whose mix differs from that of the whole data set.
% is scaled to controls: 0 for no effect and ±100 for the full control effect; potency is read from the fitted curve at half-maximal effect.

Test: qHTS of small molecules that selectively kill Giardia lamblia: Hit Validation in HepG2 cytotox;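 also: compound exposure lasted overnight at 37 deg C; nearly all actives have a fitted effect of over 55% in size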;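 as to activity change, negative = cytotoxicity: viability measured as cellular ATP by ATPLite luminescence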
Details: cell viability; Potency: HepG2 cytotoxicity; series mostly up to 38.3 µM; activity change, negative = cytotoxicity: at the top concentration
Source text: Giardia lamblia is a human pathogen afflicting impoverished nations, and the most common cause of outbreaks of diarrhea in the United States. Giardia has been classified by the CDC as a category B bioterrorism organism. The favored anti giardiasis drugs in the US are metronidazole or tinidazole, compounds that have undesirable side effects. Moreover, increasing resistance to drug regimes and recurrence are a concern. It is thus clear that alternative drug treatments are needed.
In a collaboration between the University of Maryland, College Park and the NIH Chemical Genomics Center, a bioluminescence Giardia viability assay based on the trophozoites' ATP content was developed. This assay is suitable for high throughput screening, and miniaturized the assay for compound screening in 1536-well plates. The goal of the project is to screen the Molecular Libraries Small Molecule Repository (MLSMR) for compounds that selectively kill Giardia trophozoites. This counterscreen looks at the toxicity of the compounds against the human HepG2 cell line.
NIH Chemical Genomics Center [NCGC]
NIH Molecular Libraries Probe Centers Network [MLPCN]
Assay Submitter (PI): Osnat Herzberg, University of Maryland, College Park, MD.
4 uL of HepG2 cells ae dispensed into white 1536-well plates. They are incubated overnight at 37 deg C and then 23 nL of compounds are transferred to the wells with a pintool. Plates are incubated overnight at 37 deg C. 2 uL of ATPLite is added and the plates are incubated for 15 min at room temperature before they are read on the ViewLux for luminiescence.
With `CC(=O)N(/N=C/c1ccc([N+](=O)[O-])o1)c1nc2ccccc2c(=O)n1-c1ccccc1` the “activity change, negative = cytotoxicity” value was inactive: -17.4%. For `FC(F)(F)c1ccc2c(c1)N1CCCC1CN2` (centres undefined), the “activity change, negative = cytotoxicity” value was inactive: 0.308%. For `C[C@@H]1CN([C@H](C)CO)C(=O)c2cc(NC(=O)Nc3ccc4c(c3)OCO4)ccc2O[C@H]1CN(C)Cc1ccncc1`, the “activity change, negative = cytotoxicity” value was inactive: 8.98%. With `C[C@@H]1CC=C[C@H]2[C@H]1C(=O)N(Cc1ccccc1)[C@H]2c1ccc2ccccc2c1/C=C/c1ccccc1` the “activity change, negative = cytotoxicity” value was inactive: 6.21%. In the case of `O=C(Oc1cccc2c(O)cccc12)c1ccccc1Cl`, the “activity change, negative = cytotoxicity” value is reported as inactive: 20.5%. In the case of `CCN(CC)CC(=O)Nc1c(C)cccc1C`, the “activity change, negative = cytotoxicity” value is reported as inactive: 14.7%. For `Cc1c(NC2(C#N)CCCC2)c(=O)n(-c2ccccc2)n1C`, the “activity change, negative = cytotoxicity” value was inactive: 3.27%. In the case of `COc1cc2c3c(c1OC)C1(C=CC(=NNC(N)=O)C=C1)CC3N(C(C)=O)CC2` (centres undefined), the “activity change, negative = cytotoxicity” value is reported as inactive: -0.0508%. In the case of `Cc1ccc(S(=O)(=O)CC(=O)Nc2ncc([N+](=O)[O-])s2)cc1`, the “activity change, negative = cytotoxicity” value is reported as inactive: 1.79%. For `COc1ccc(CC(=O)NCC(=O)Nc2ccccc2Br)cc1`, the “activity change, negative = cytotoxicity” value was inactive: 21.4%. In the case of `NC(=O)C1CCN(c2cc(Cl)ccc2[N+](=O)[O-])CC1`, the “activity change, negative = cytotoxicity” value is reported as inactive: 15.7%. For `CC(C)CC(=O)NC(=S)NNC(=O)c1cccc([N+](=O)[O-])c1`, the “activity change, negative = cytotoxicity” value was inactive: -27.5%. In the case of `Cn1c(=O)c(=O)n(C)c2cc([N+](=O)[O-])c(N3CCOCC3)cc21`, the “activity change, negative = cytotoxicity” value is reported as inactive: -8.79%. For `OC(COc1cccc2ccccc12)CN1CCN(c2ccc(Cl)cc2)CC1` (centres undefined), the “activity change, negative = cytotoxicity” value was inactive: -21.8%. In the case of `Cn1c(CNC(=O)c2ccccc2F)cc2ccccc21`, the “activity change, negative = cytotoxicity” value is reported as inactive: 0.748%. For `O=C(O)C1CCCN1S(=O)(=O)c1ccc(Br)cc1` (centres undefined), the “activity change, negative = cytotoxicity” value was inactive: 23.3%. For `CCC(=O)N1CCN(c2ccc(NC(=O)c3ccc([N+](=O)[O-])o3)cc2Cl)CC1`, the Potency was active: 3.69 µM. For `CCN1C[C@@H]2[C@@H]3C(=O)N(Cc4ccccc4)C(=O)[C@@H]3[C@](C)(C1=O)N2C(=O)c1ccccc1`, the “activity change, negative = cytotoxicity” value was inactive: 0.487%. In the case of `Cc1cc(NC(=O)c2ccc([N+](=O)[O-])o2)ccc1NC(=O)c1ccco1`, the Potency is reported as active: 2.93 µM. For `C#CCCOC(=O)Nc1ccccc1`, the “activity change, negative = cytotoxicity” value was inactive: 19.7%. In the case of `Cc1cc([N+](=O)[O-])nn1Cc1noc(C(=O)NCc2ccc3c(c2)OCO3)n1`, the “activity change, negative = cytotoxicity” value is reported as inactive: 17.5%. With `COc1ccc(-c2nc3c(=O)n(C)c(=O)nc-3n(C)n2)cc1` the Potency was active: 1.85 µM. With `O=c1c2ccccc2nc(/C=C/c2ccc([N+](=O)[O-])o2)n1CCCO` the Potency was active: 3.69 µM. With `O=C(O)c1cc2ccccc2c(N=Nc2cccnc2)c1O` the “activity change, negative = cytotoxicity” value was inactive: 17.4%. In the case of `CCCC/C=C/C(NC(=O)c1ccc(C(=O)OC)cc1)c1ccccc1` (centres undefined), the “activity change, negative = cytotoxicity” value is reported as inactive: 13%. For `O=C1CSC(c2ccc(F)cc2)N1c1c(F)cccc1F` (centres undefined), the “activity change, negative = cytotoxicity” value was inactive: 5.7%. For `O=[N+]([O-])c1cn(-c2nc(-c3ccco3)cc(C(F)(F)F)n2)cn1`, the “activity change, negative = cytotoxicity” value was inactive: 2.48%. With `CCNc1nc(NCC)nc(-n2nc(C)cc2C)n1` the “activity change, negative = cytotoxicity” value was inactive: 13.7%. In the case of `COc1ccc2oc(=Nc3ccccc3)c(-c3nc4ccccc4[nH]3)cc2c1`, the Potency is reported as active: 7.36 µM. In the case of `COc1ccccc1C(=O)C1CCCN(C(=O)c2ccco2)C1` (centres undefined), the “activity change, negative = cytotoxicity” value is reported as inactive: 5.82%. With `COc1ccc(NS(=O)(=O)c2ccc3oc4ccccc4c3c2)cn1` the “activity change, negative = cytotoxicity” value was inactive: 2.07%. For `COc1cccc(CSc2nc3ccncc3[nH]2)c1`, the Potency was active: 4.65 µM. With `Cc1cccc(NC(=O)N2CCN(Cc3ccc4c(c3)OCO4)CC2)c1C` the “activity change, negative = cytotoxicity” value was inactive: 9.98%. In the case of `CN1C2=CC=CC=CC2=[N+](C)C12C([N+](=O)[O-])=CC(=[N+]([O-])[O-])C=C2[N+](=O)[O-]` (centres undefined), the “activity change, negative = cytotoxicity” value is reported as inactive: 21%. In the case of `CC1CCN(S(=O)(=O)c2cn(C)c(=O)n(C)c2=O)CC1`, the “activity change, negative = cytotoxicity” value is reported as inactive: 15.2%. For `O=C(Nc1ccc(N2CCCCC2)cc1)c1ccc([N+](=O)[O-])o1`, the Potency was active: 13.1 µM. In the case of `COc1ccccc1S(=O)(=O)Cc1ccc(C(=O)NCC(OC)OC)o1`, the “activity change, negative = cytotoxicity” value is reported as inactive: 19.4%. For `CC(=O)Nc1ccc(S(=O)(=O)NCCC(=O)N2CCN(c3ccccc3Cl)CC2)cc1`, the “activity change, negative = cytotoxicity” value was inactive: 2.36%. For `CN(C)S(=O)(=O)c1cccc(C(=O)NCCNC(=O)c2cccc(S(=O)(=O)N(C)C)c2)c1`, the “activity change, negative = cytotoxicity” value was inactive: 23.1%. With `CCCCOc1ccc(C(=O)NCC(=O)NCCCn2nc(C)cc2C)cc1` the “activity change, negative = cytotoxicity” value was inactive: 8.77%. For `CN(C)c1nc(=Nc2cccc(Cl)c2)ss1`, the “activity change, negative = cytotoxicity” value was inactive: 19.8%. For `Cc1cc(C)cc(N=c2c([N+](=O)[O-])nn(-c3cccc(Cl)c3)n2O)c1`, the “activity change, negative = cytotoxicity” value was inactive: 17.1%. With `COc1cc(-c2noc(C)c2C(=O)NCC[C@@H]2CCCN2C)cc(OC)c1OC` the “activity change, negative = cytotoxicity” value was inactive: 12.6%. For `CN(C)C(=O)CCc1ccc2c3c([nH]c2c1)[C@]1(CCC2CCCC2)[C@@H](C(=O)N2CCOCC2)C[C@H](CC(=O)NCCN2CCOCC2)C(=O)N1CC3`, the “activity change, negative = cytotoxicity” value was inactive: -10.8%. For `CC1(C)N=c2ccc([N+](=O)[O-])c(N)c2=[N+]1[O-]`, the “activity change, negative = cytotoxicity” value was inactive: 3.92%. With `C=Cc1ccc(CN2CCCN(Cc3ccc(F)cc3)S2(=O)=O)cc1` the “activity change, negative = cytotoxicity” value was inactive: 0.795%. For `COc1ccccc1C(=O)NC(=O)OCCn1c(C)cnc1[N+](=O)[O-]`, the “activity change, negative = cytotoxicity” value was inactive: 13.5%. For `CCCc1nc2c(=O)n(C)c(=O)nc-2n(C)n1`, the Potency was active: 8.26 µM. In the case of `O=C(COc1cccnc1[N+](=O)[O-])NCc1cccs1`, the “activity change, negative = cytotoxicity” value is reported as inactive: 7.57%.
